Here are results for one substance from FireProtDB (doi:10.1021/bi00152a018).

For this series the following is noted: Gallus gallus, 35 °C, GdnHCl, CD, Sodium acetate 0.1 M, reversible: Unknown.

Consider “Lysozyme C wild type (sequence left out)”, for which the denaturant m value is, setting by setting: (pH 4) 2.59 kcal/mol/M; (pH 4.5) 2.59 kcal/mol/M; (pH 5) 2.59 kcal/mol/M; (pH 5.5) 2.59 kcal/mol/M. Further, the “denaturant midpoint (higher = more stable)” value (shortened to “denaturant midpoint”) (pH 4) worked out at 3.26 M, the “denaturant midpoint” value (pH 4.5) came out at 3.69 M, the “denaturant midpoint” value (pH 5) is 3.63 M and the “denaturant midpoint” value (pH 5.5) was found to be 3.61 M. Further, the unfolding free energy runs as follows: (pH 4) 8.44 kcal/mol; (pH 4.5) 9.56 kcal/mol; (pH 5) 9.4 kcal/mol; (pH 5.5) 9.35 kcal/mol.
